Where “and” joins values, the source holds several entries; their conditions need not be identical. Equal values may be shown once. The whole screen tested about 420,000 compounds, of which about 50,000 (12%) were called active. Inconclusive results, whose numbers are uncertain, are shown with a selection of clear calls. Calls come from the whole dose curve; as a rule, active = well fitted inhibition curve with a large enough effect; inconclusive = small, poorly fitted or top-dose-only effect; inactive = flat fitted curve, though single readings scatter. Potencies of inconclusive entries are left out as doubtful fits.
Test: qHTS for Inhibitors of human tyrosyl-DNA phosphodiesterase 1 (TDP1): qHTS in cells in presence of CPT; note: nearly all actives have a fitted effect of over 55% in size
Details: chicken DT40 Tdp1-/-;hTDP1 cells + 20 nM CPT, ATP luminescence, 48 h; activity change, negative = growth inhibition: at 46.2 µM (top of the series)
Outline: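 Cell growth measured by CellTiter-Glo luminescence after a minimum 48 h, 37 C compound exposure with 20 nM CPT in Tdp1-knockout DT40 cells stably expressing hTDP1, seeded 400/well; qHTS titration format.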
% is set by controls: 0 for no effect and ±100 for the full control effect; potency is the fitted concentration of half-maximal effect; tags give direction and shape of the fitted curve.

SMILES	Potency	activity change, negative = growth inhibition
CC(NC(=O)c1ccc(C(C)(C)C)cc1)C(c1cccs1)N1CCOCC1 (stereo not given)	inconclusive [inhibitor, single point]	–
Cc1ccc(C(=O)OCCn2cc(C#N)c(=O)[nH]c2=O)cc1	inconclusive [inhibitor, full curve, poor fit]	–
COCCCNC(=O)Cn1cnc2c(NCc3ccccc3)ncnc21	–	inactive: 4.88%
CC(O)CNc1nc(Cl)c(C#N)s1 (stereo not given)	–	inactive: 12.1%
CCCc1nc2c3ccccc3ccn2c1Cc1ccc(OC)cc1C	active: 18.4 µM	–
COc1ccc(-c2nc3c(C#N)c[nH]n3c2NC2CCCCC2)cc1	active: 16.4 µM	–
CCOC(=O)c1cc2c(ccn2C)n1CC(=O)N1CCC(Cc2ccccc2)CC1	active: 23.1 µM	–
COc1ccc(C2c3cc(OC)c(OC)cc3Cc3c4cc(OC)c(OC)cc4cc[n+]32)cc1OC (stereo not given)	inconclusive [inhibitor, single point]	–
CN(C)CCCNc1oc(/C=C/c2ccccc2)nc1C#N	–	inactive: 2.52%
COc1ccccc1CNc1ncnc2ccc(-c3ccccc3CN(C)C)cc12	inconclusive [inhibitor, single point]	–
Cc1ncc2c(c1CNS(=O)(=O)N(C)C)CCN(C(=O)c1c(F)cccc1F)C2	–	inactive: 6.27% [at 9.04 µM]
Cc1cc(C(=O)OCC(=O)Nc2nc(-c3ccccc3)cs2)c(C)o1	inconclusive [inhibitor, single point]	–
O=C(C1CC1)N(CCc1ccccc1)Cc1nc2ccccc2c(=O)[nH]1	inconclusive [inhibitor, single point]	–
O=C(Nc1ccccc1N1CCCC1)c1ccc([N+](=O)[O-])cc1Cl	inconclusive [inhibitor, single point]	–
CCCc1cc(NCCCO)n2c(nc3ccccc32)c1C#N	–	inactive: -1.25%
COc1ccc(CCNC(=O)C(C)n2nc(C)c3sc4ccccc4c3c2=O)cc1OC (stereo not given)	active: 14.6 µM	–
O=C1C=CC(=C(c2ccc(O)cc2)c2ccc(O)cc2)C=C1	active: 5.8 µM and active: 9.2 µM	–
O=C1c2ccccc2C(Nc2ccccc2)N1Cc1ccc2c(c1)OCO2 (stereo not given)	–	inactive: -0.578%
CN1CCN(c2nc(-c3cccs3)nc3ccccc23)CC1	inconclusive [inhibitor, single point]	–
COC(=O)[C@H]1C[C@H]1[C@@H](NC(=O)c1ccc[nH]1)c1ccccc1	–	inactive: -0.984%
O=[N+]([O-])c1ccc(N/N=C/c2sc(N3CCOCC3)nc2-c2ccccc2)c(S(=O)(=O)Nc2ccccc2Cl)c1	active: 3.26 µM	–
CC(OC(=O)C1CCN(S(=O)(=O)c2ccc(Cl)cc2)CC1)C(=O)N1CCc2ccccc21 (stereo not given)	inconclusive [inhibitor, single point]	–
Cc1nc(NC(=O)c2cc3c(C)nn(-c4ccccc4)c3s2)sc1C(=O)Nc1ccccc1	inconclusive [inhibitor, single point]	–
CCCCCCC(=O)Nc1nc(C)c(-c2csc(Nc3cc(Cl)ccc3OC)n2)s1	inconclusive [inhibitor, partial curve]	–

SMILES	Potency	activity change, negative = growth inhibition
COC(=O)[C@@H]1C[C@@H](NC(=O)c2ccc(C(F)(F)F)cc2)CN1Cc1cccc(O)c1	–	inactive: -8.22% [at 9.04 µM]
Cc1ccc(S(=O)(=O)/N=C2\SC(CC(=O)Nc3ccc(F)cc3)C(=O)N2c2ccccc2)cc1 (stereo not given)	–	inactive: -2.48%
Cc1cccc(-c2cc(NC(=O)c3ccccc3C)n(-c3ccccc3)n2)c1	inconclusive [inhibitor, single point]	–
Cc1sc(N)nc1-c1ccc(Oc2ccccc2)cc1	inconclusive [inhibitor, partial curve, poor fit]	–
CC(C)[C@H](NC(=O)N1CC(=O)Nc2ccccc21)C(=O)N[C@@H](C(=O)O)c1ccccc1	–	inactive: 16.5%
Cc1ccc(Cc2nnc3n(-c4ccccc4)nc(C(=O)c4ccccc4)n3c2=O)cc1	inconclusive [inhibitor, single point]	–
O=C(NC1CCN(Cc2ccc(Cl)cc2)CC1)c1cn(-c2ccccc2)nc1-c1cccnc1	active: 16.4 µM	–
CCOc1cc(CNCCCN2CCOCC2)ccc1OCC(=O)NC(C)(C)C	–	inactive: 0.753%
Cc1ccc(C)c(CNC(=O)C2CCCCN2S(=O)(=O)c2ccc(F)cc2)c1 (stereo not given)	inconclusive [inhibitor, partial curve]	–
COc1ccc(-n2c(SCC(C)=O)nc3sc(C)c(C)c3c2=O)cc1	–	inactive: -15.6%
COC(=O)c1[nH]c2ccc(C)cc2c1NS(=O)(=O)c1ccc(F)c(C)c1	inconclusive [inhibitor, single point]	–
COc1ccc(CNC(=S)Nc2cc(C)ccc2C)cc1	inconclusive [inhibitor, single point]	–
CCN(c1cccc(C)c1)C(CNS(=O)(=O)c1ccccc1)c1ccccc1 (stereo not given)	inconclusive [inhibitor, single point]	–
Cc1ccc(C2NC(=O)c3ccccc3N2)c(C)c1 (stereo not given)	active: 2.06 µM	–
CCC(=O)Nc1ccc(N2CCCCC2)cc1	inconclusive [inhibitor, single point]	–
COc1cccc(-n2c(SCC(=O)Nc3ccc4c(c3)CCC4)nc3ccccc3c2=O)c1	inconclusive [inhibitor, partial curve]	–
COCCNC(=O)Cn1c(=O)n(Cc2ccco2)c(=O)c2ccccc21	–	inactive: 6.44%
Cc1ccc(Cl)cc1N1CCN(S(=O)(=O)c2c(C)[nH]c(C)c2C(=O)N2CCCCC2)CC1	active: 16.4 µM	–
CN(Cc1ccccc1F)c1nc(-c2cccs2)nc2ccccc12	inconclusive [inhibitor, single point]	–
CCC(=O)N1c2ccccc2CC1C(=O)NCCCN1CCN(c2ccccc2)CC1 (stereo not given)	inconclusive [inhibitor, single point]	–
NC(=O)c1cnn2c(C(F)(F)F)cc(-c3ccccc3)nc12	inconclusive [inhibitor, partial curve]	–
COc1ccccc1N1CCN(C(=O)c2cc(=O)c3ccc(C)cc3o2)CC1	inconclusive [inhibitor, single point]	–
CCSc1ccccc1C(=O)n1nnc2ccccc21	active: 12.6 µM	–
Cc1ccc(CCNS(=O)(=O)c2ccc3c(c2)NC(=O)CCS3)cc1	inconclusive [inhibitor, single point]	–

SMILES	Potency	activity change, negative = growth inhibition
Cn1c(N2CCOCC2)c(/C=N/OC(=O)c2ccc(F)cc2)c2ccccc21	active: 3.66 µM	–
CC(/C=N/NC(=O)COc1ccccc1C)=N\NC(=O)COc1ccccc1C	inconclusive [inhibitor, single point]	–
Cn1cnnc1SCC(=O)Nc1cc(S(=O)(=O)N2CCCCCC2)ccc1Cl	–	inconclusive: -31.3% [inhibitor]
CC(C)CCNC(=O)CCCOc1cc(=O)n(C)c2ccccc12	inconclusive [inhibitor, single point]	–
Cc1ccc(S(=O)(=O)CCC(=O)Nc2sccc2C#N)cc1	inconclusive [inhibitor, partial curve]	–
Cc1ccc(N2C(=O)SC(Cc3ccccc3)C2=O)cc1 (stereo not given)	inconclusive [inhibitor, single point]	–
CC(C)CC(c1nnnn1C(C)C)N1CCN(c2ccccc2)CC1 (stereo not given)	inconclusive [inhibitor, partial curve, poor fit]	–
OC(c1ccc(F)c(F)c1)c1nc(-c2csc3ccccc23)cs1 (stereo not given)	active: 23.1 µM	–
O=C(c1ccccc1[N+](=O)[O-])N1CCC(Cc2ccccc2)CC1	inconclusive [inhibitor, partial curve]	–
CC(Oc1cccc(Cl)c1)C(=O)Nc1cc(S(=O)(=O)N2CCOCC2)ccc1N1CCCCC1 (stereo not given)	inconclusive [inhibitor, single point]	–
O=C(c1ccc2ccccc2c1)C1CCCN(C(=O)c2noc3c2CCCC3)C1 (stereo not given)	inconclusive [inhibitor, single point]	–
CCOC(=O)N1CCN(c2c(NCc3ccccc3Cl)c(=O)c2=O)CC1	active: 18.4 µM	–
CC1CCCCN1C(=O)c1cc(-c2ccc(Cl)c(Cl)c2)on1 (stereo not given)	–	inactive: -4.44%
Cn1c(SCC(=O)N2CCCc3ccccc32)nc2cccnc21	inconclusive [inhibitor, single point]	–
COc1ccc(CNC(=O)C(c2cccc(C)c2)N(C(=O)c2csnn2)C2CC2)cc1 (stereo not given)	inconclusive [inhibitor, single point]	–
Cc1c(C(=O)N2CCN(c3ncccn3)CC2)oc2ccc(F)cc12	inconclusive [inhibitor, single point]	–
O=C(c1ccco1)N1CCN(C(=O)c2ccc(CS(=O)c3ccc(Br)cc3)o2)CC1 (stereo not given)	inconclusive [inhibitor, single point]	–
Cn1cccc1C1C=C(c2ccc(C(C)(C)C)cc2)Nc2ncnn21 (stereo not given)	inconclusive [inhibitor, single point]	–
O=C(CSc1c2c(nc3ccc(Cl)cc13)CCCC2)NCc1ccco1	inconclusive [inhibitor, single point]	–
COc1ccccc1NC(=O)COC(=O)c1cnc(C)cn1	–	inactive: 9.06%
COc1ccc(C2C=C(c3ccc(C)cc3)Nc3c(C(=O)Nc4ccccc4)cnn32)cc1 (stereo not given)	inconclusive [inhibitor, single point]	–
CCCS(=O)(=O)c1c(S(=O)(=O)CCC)c2cc(C(C)(C)C)ccn2c1C(=O)c1ccc(OC)c(OC)c1	inconclusive [inhibitor, single point]	–

Source: PubChem BioAssay AID686979 (National Center for Advancing Translational Sciences (NCATS), 2013)
